# Assay results taken from patent US7138486B2, “Insulinotropic hormone derivatives and uses thereof” (The General Hospital Corporation, priority 1986, dated 2006).
# At least one peptide structure holds a part that was inferred or is arguable (an end, a ring closure or a residue). Marks after values point to notes of the source that are not given here.
# Tests used:
# [1] = tested on: RIN 1046-38 cells; experiment: Levels of insulin, actin and angiotensinogen mRNAs by Northern blot densitometry; assay type: cell-based, rat
# Experimental: Rat insulinoma cells of cell line RIN-38 were derived from a continuous islet cell line, RIN-r, which was established from a transplantable rat islet cell tumor (Gazdar, A. F., et al., Proc. Natl. Acad. Sci., USA 77:3519–3523 (1980)). The cells were maintained in DMEM (Gibco) at a glucose concentration of 4,500 mg/L and supplemented with 10% heat-inactivated fetal bovine serum (Gibco), 100 U/ml of penicillin and 100 μg/ml of streptomycin. Incubations were carried out at 37° C. in 95% air:5% CO2. Cells grown in the above manner were washed and resuspended in DMEM (Gibco) containing 0.1% bovine serum albumin and 25 mM glucose. […] Incubations were for six hours.
# Messenger RNAs specific for insulin, actin, or angiotensinogen were identified by Northern hybridization as follows: cellular RNA was extracted from solid tumors and cells by homogenization in guanidine thiocyanate and sedimentation through a cesium chloride cushion. Poly A^+ RNA was isolated by oligo dT cellulose chromatography (Aviv, H., et al., Proc. Natl. Acad. Sci., USA 69:1408–1412 (1972)). Twenty micrograms of total RNA from each sample were fractionated by size on a 1.4% agarose gel after denaturation in glyoxal, followed by electrotransfer to a nylon membrane (Nytran; Schleicher and Schuell). Blotted membranes were baked for two hours at 80° C. under vacuum, prehybridized in 1M NaCl/1% SDS/10% Dextran sulfate at 50° C. overnight and hybridized at the same temperature for 24 h after addition of the labeled probes (3–5×10^5 cpm/ml); they were then washed at 55° C. twice in 1×SCC (0.15M NaCl/0.015 M Na citrate)/1% SDS), and exposed to X-ray film for varying times at −70° C. with an intensifying screen. The relative amounts of the specific mRNA were determined by microdensitometry.
# [2] = tested on: RIN-38 insulinoma cells; experiment: Transcription rates of insulin and actin genes (nascent nuclear RNA transcripts); assay type: cell-based, rat; details: 10^−7M; 4 hours
# [3] = tested on: RIN-38 rat insulinoma cells; experiment: Insulin in cell culture medium by radioimmunoassay; assay type: cell-based; details: 5×10^−7M
# [4] = tested on: rat pancreas; experiment: Pancreatic perfusion assay of insulinotropic activity (effluent insulin); assay type: in vivo; details: for Mean incremental insulin release above control: 10^−9 M; for Insulinotropic activity (perfusate insulin): Table 6
# [5] = tested on: fasting non-insulin dependent diabetic subjects; experiment: GLP-1(7-37) infusion in fasting maturity onset diabetic (NIDDM) subjects: insulin and glucose; assay type: in vivo, human
# [6] = tested on: non-insulin dependent diabetic subjects; experiment: Meal studies: GLP-1(7-37) infusion concurrent with a standard meal in NIDDM subjects; assay type: in vivo, human
# [7] = tested on: non-diabetic subject; experiment: Meal study in a non-diabetic subject; assay type: in vivo, human; details: single meal study; 5 ng/kg/min
# [8] = tested on: rat insulin I gene promoter in βTC-1 cells; experiment: CAT activity in cells transiently transfected with −410 Ins-CAT plasmid; assay type: cell-based, mouse
# [9] = tested on: βTC-1 cells; experiment: Proinsulin biosynthesis ([3H]leucine labelling); assay type: cell-based, mouse; details: 6 hours labeling
# Experimental: βTC-1 cells (Efrat et al., Proc. Natl. Acad. Sci. (USA) 85:9037–9041 (1988)) were grown in a humidified atmosphere at 37° C. in RPMI 1640 medium supplemented with 10% (vol/vol) fetal bovine serum, 5% (vol/vol) horse serum, 100 U/ml penicillin and 100 μg/ml streptomycin. Media were changed after three days and cells were split 1:3 after six days.
# βTC-1 cells were plated into 35 mm plates and grown for two days to reach 80–90% confluency. During a 6 hour labeling period cells were incubated in 1 ml RPMI 1640 supplemented with 0.1% human serum albumin, 0.1% bacitracin and 50 μCi[^3H]leucine. Forskolin, IBMX, 8-Bromo-cAMP and GLP-1(7-37) were added from stock solutions as described (see “cell transfection”). Cells were harvested in PBS and lysed by three freeze-thaw cycles. Immunoreactive proinsulin was precipitated with an antiserum raised in rabbits against pork insulin that was coupled to a 10% suspension of bacterial lysates (Saureus) containing protein A. Radioactivity contained in the resulting pellets was counted using a lliquid scintillation counter. Incorporation of [^3H]leucine into total protein was measured in trichloroacetic acid precipitates of the cells. None of the agents tested had any effects on [^3H]leucine incorporation into TCA precipitable proteins. Data are expressed as fold-induction of proinsulin biosynthesis above those in the control experiments (no treatment).
# [10] = fasting studies (n = 3), 5.0 ng/kg/min
smiles,measurement,setting,value
CC[C@H](C)[C@H](NC(=O)[C@H](Cc1ccccc1)NC(=O)[C@H](CCC(=O)O)NC(=O)[C@H](CCCCN)NC(=O)[C@H](C)NC(=O)[C@H](C)NC(=O)[C@H](CCC(N)=O)NC(=O)CNC(=O)[C@H](CCC(=O)O)NC(=O)[C@H](CC(C)C)NC(=O)[C@H](Cc1ccc(O)cc1)NC(=O)[C@H](CO)NC(=O)[C@H](CO)NC(=O)[C@@H](NC(=O)[C@H](CC(=O)O)NC(=O)[C@H](CO)NC(=O)[C@@H](NC(=O)[C@H](Cc1ccccc1)NC(=O)[C@@H](NC(=O)CNC(=O)[C@H](CCC(=O)O)NC(=O)[C@H](C)NC(=O)[C@@H](N)Cc1c[nH]cn1)[C@@H](C)O)[C@@H](C)O)C(C)C)C(=O)N[C@@H](C)C(=O)N[C@@H](Cc1c[nH]c2ccccc12)C(=O)N[C@@H](CC(C)C)C(=O)N[C@H](C(=O)N[C@@H](CCCCN)C(=O)NCC(=O)N[C@@H](CCCNC(=N)N)C(=O)NCC(=O)O)C(C)C [GLP-1(7-37)],Increase in levels of insulin mRNA,[1]; 10^−10M to 10^−11 M,3 fold
same,Increase in insulin mRNA levels over control values,"[1]; 24 hr, 25 mM glucose",3 fold
same,Actin mRNA level,"[1]; Experiment 1, peptide 5 × 10^−7 M, control 0.68 ± 0.03",0.72 ± 0.16 Arbitrary densitometric units
same,Insulin mRNA level,"[1]; Experiment 1, peptide 5 × 10^−7 M, control 1.28 ± 0.18, mean ± SEM",4.23 ± 0.77^3 Arbitrary densitometric units
same,Angiotensinogen mRNA level,"[1]; Experiment 1, peptide 5 × 10^−7 M, control 2.67 ± 0.31",2.78 ± 0.46 Arbitrary densitometric units
same,Actin mRNA level,"[1]; Experiment 2, 5 × 10^−8 M","1.99 (2.24, 1.74) Arbitrary densitometric units"
same,Insulin mRNA level,"[1]; Experiment 2, 5 × 10^−8 M","7.90 (8.40, 7.40) Arbitrary densitometric units"
same,Actin mRNA level,"[1]; Experiment 2, 5 × 10^−9 M","2.46 (2.01, 2.92) Arbitrary densitometric units"
same,Insulin mRNA level,"[1]; Experiment 2, 5 × 10^−9 M","8.50 (7.59, 9.38) Arbitrary densitometric units"
same,Actin mRNA level,"[1]; Experiment 2, 5 × 10^−10 M","2.09 (2.38, 1.79) Arbitrary densitometric units"
same,Insulin mRNA level,"[1]; Experiment 2, 5 × 10^−10 M","6.70 (7.92, 5.50) Arbitrary densitometric units"
same,Actin mRNA level,"[1]; Experiment 2, 5 × 10^−11 M, control 2.69","2.11 (1.86, 2.36) Arbitrary densitometric units"
same,Insulin mRNA level,"[1]; Experiment 2, 5 × 10^−11 M, mean of duplicates (individual values), control 5.90","7.00 (5.58, 8.41) Arbitrary densitometric units"
same,Actin mRNA level,"[1]; Experiment 3, 5 × 10^−7 M, control 3.29 ± 0.08",4.36 ± 0.44 Arbitrary densitometric units
same,Insulin mRNA level,"[1]; Experiment 3, 5 × 10^−7 M, control 5.56 ± 0.43",13.87 ± 0.40^5 Arbitrary densitometric units
same,Effects on levels of actin and angiotensinogen mRNAs,[1]; insulinoma cell line,negligible effects
same,Rate of actin gene transcription,[2],no detectable effect
same,Rate of insulin gene transcription,[2],increased the rate of insulin gene transcription
same,Insulin Produced,"[3]; 1 Hour, no peptide 166",381 μunits/ml
same,Insulin Produced,"[3]; 24 Hours, no peptide 2,778","5,164 μunits/ml"
same,Increase in effluent insulin concentrations,[4]; 5×10^−7M,132 fold
same,Insulin Produced,"[4]; 5 × 10^−7 M, minute 0 (before peptide added)",50 picograms/ml
same,Insulin Produced,"[4]; 5 × 10^−7 M, minute 1","6,600 picograms/ml"
same,Insulin Produced,"[4]; 5 × 10^−7 M, minute 2","4,700 picograms/ml"
same,Insulin Produced,"[4]; 5 × 10^−7 M, minute 3","1,700 picograms/ml"
same,Increase in effluent insulin concentration,[4]; 5×10^−8M,21 fold
same,Insulin Produced,"[4]; 5 × 10^−8 M, minute 1","20,700 picograms/ml"
same,Insulin Produced,"[4]; 5 × 10^−8 M, minute 2","10,500 picograms/ml"
same,Insulin Produced,"[4]; 5 × 10^−8 M, minute 3","4,000 picograms/ml"
same,Increase in effluent insulin levels,[4]; 5×10^−10M,32 fold
same,Insulin Produced,"[4]; 5 × 10^−10 M, minute 1","7,400 picograms/ml"
same,Insulin Produced,"[4]; 5 × 10^−10 M, minute 2","1,800 picograms/ml"
same,Insulin Produced,"[4]; 5 × 10^−10 M, minute 3",760 picograms/ml
same,Increase in insulin levels,[4]; 5×10^−11M,15 fold
same,Insulin Produced,"[4]; 5 × 10^−11 M, minute 0 (before peptide added)",160 picograms/ml
same,Insulin Produced,"[4]; 5 × 10^−11 M, minute 1","2,400 picograms/ml"
same,Insulin Produced,"[4]; 5 × 10^−11 M, minute 2","1,700 picograms/ml"
same,Insulin Produced,"[4]; 5 × 10^−11 M, minute 3","1,900 picograms/ml"
same,Insulin Produced,"[4]; 5 × 10^−12 M, minute 0 (before peptide added)",50 picograms/ml
same,Insulin Produced,"[4]; 5 × 10^−12 M, minute 1",50 picograms/ml
same,Insulin Produced,"[4]; 5 × 10^−12 M, minute 2",50 picograms/ml
same,Insulin Produced,"[4]; 5 × 10^−12 M, minute 3",98 picograms/ml
same,Peak insulin release,"[4]; 10^−1 M (so in the source), glucose 6.6 mM",4.1 ± 1.4 ng/mL
same,Mean incremental insulin release above control,[4]; perfusate glucose 6.6 mM,4.7 ± 1.0 ng/mL
same,Mean incremental insulin release above control,[4]; perfusate glucose 16.7 mM,22.8 ± 4.7 ng/mL
same,Mean insulin release,"[4]; 10^−11 M on a background of the analog GLP-1 (8-37), P<0.025, N=7",1.30 ± 0.19 ng/mL
same,Insulinotropic activity,"[4]; 10^−11 M, five minute perfusions, FIG. 4",detectable insulinotropic activity
same,Peak insulin secretion,"[4]; 10^−12 M, glucose 6.6 mM, base line 0.8±0.2 ng/ml, P<0.05",1.6 ± 0.5 ng/mL
same,Insulinotropic activity (perfusate insulin),[4]; time +1 minute,4200 ± 784
same,Insulinotropic activity (perfusate insulin),[4]; time +2 minutes,3280 ± 889
same,Insulinotropic activity (perfusate insulin),[4]; time +3 minutes,2500 ± 505
same,Insulinotropic activity (perfusate insulin),"[4]; time −1 minute (before peptide), 5 minute perfusion",1330 ± 280
same,Concentration at which still a potent stimulator of insulin secretion (as low as),[4]; isolated perfused pancreas,5 pM
same,Concentration at which an insulinotropic effect is still mediated (as low as),[4]; pancreatic B cell secretagogue,10^−12 M
same,Rise in serum insulin levels,"[5]; 1.25 ng/kg/min, one subject",1.5 fold
same,Increase of insulin from pre-infusion levels,[5]; fasting diabetic subjects,3 fold
same,Increase of insulin peak levels and insulin area under the curve compared with placebo infusion of saline,[5]; fasting diabetic subjects,ten-fold
same,Area under curve of insulin,[5]; [10],924 ± 571++ uU/mL 30 min
same,Peak insulin,[5]; [10],43 ± 21++ uU/mL
same,Peak insulin,"[5]; fasting studies, 1.25 ng/kg/min, only one NIDDM subject, saline 5.0 ± 2.6",6.2# uU/mL
same,Area under curve of insulin,"[5]; fasting studies, 1.25 ng/kg/min, only one NIDDM subject, saline 123.0 ± 100",123.0# uU/mL 30 min
same,Area under curve of insulin,"[5]; fasting studies, 20.0 ng/kg/min",628 ± 317 uU/mL 30 min
same,Peak insulin,"[5]; fasting studies, 20.0 ng/kg/min, two NIDDM subjects",51 ± 18@ uU/mL
same,Mean plasma glucose nadir,"[6]; 5 ng/kg/min, 45 minutes after start of meal, 174±44 at start, placebo rose 164±25 to 238±46",147 ± 52 mg/dL
same,Mean insulin level over baseline during the remainder of the infusion,"[6]; 5 ng/kg/min, after peak at 10 minutes",two-fold
same,Postprandial rise in plasma glucose,"[6]; 5 ng/kg/min, first 60 minutes after the meal",essentially eliminated
same,Increase in insulin levels compared with the placebo infusion,"[6]; 5 ng/kg/min, meal",three-fold
same,Peak insulin,"[6]; Meal Studies (n = 5), 5.0 ng/kg/min, saline 10.0 ± 12.0",45 ± 6++ uU/mL
same,Area under curve of insulin,"[6]; Meal Studies (n = 5), 5.0 ng/kg/min, saline 141.0 ± 147",752 ± 535++ uU/mL 30 min
same,Increase in insulin during infusion,[7],two-fold
same,Increase of CAT activity compared to control cells,"[8]; 10 nM, 24 hours, FIG. 11",2.3±0.23 fold
same,"Induction of CAT activity, maximal effect","[8]; 10 nM, concentration series 100 pM-1 μM, FIG. 12",2.1±0.3 fold
same,CAT-activity compared to cells exposed to 10 nM,[8]; 0.1 and 1 μM,clearly lower
same,"Increase of proinsulin biosynthesis, maximal action",[9]; 10 nM,1.56±0.11 fold
same,Increase of 3H-incorporation into proinsulin,[9]; 1 μM,1.26±0.13 fold
